The values that follow come from PubChem BioAssay (NCI).

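Results reflect a 48-hour exposure of cells in 96-well plates to compound at five concentrations. GI50 is the concentration that inhibits growth by half. TGI marks complete inhibition of growth.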

The test system of this test is NCI-H322M lung. The experiment in a line: NCI anticancer screen, dose series, 48 h.

Regarding `Cc1ccc(NC(=O)Nc2nc3ccc([N+](=O)[O-])cc3s2)cc1`, the GI50 was 3.13 µM and the TGI was determined as 11.1 µM.
The like results for `COc1ccc(C2C(C#N)=C(/N=C/c3ccc(Cl)cc3)Oc3c2sc2c(C)cccc32)cc1` (centres undefined) were, in that order, 7.28 µM and 24.8 µM.
